# About 230 (0.21%) of roughly 110,000 compounds showed an effect of 50% or more. This is one part of the list.
# Target: DPAP1 (Plasmodium falciparum, UniProt Q8IIJ9)
# Experiment: primary screen, percent inhibition; read by cleavage of a fluorogenic dipeptide substrate; higher = more effect of the substance
# Design: species or system P. falciparum D10 trophozoite lysates; single well
# 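Note: 30 min substrate incubation versus DMSO and 10 µM JCP410 controls.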
# Sequence of DPAP1 (Q8IIJ9 whole entry, looked up): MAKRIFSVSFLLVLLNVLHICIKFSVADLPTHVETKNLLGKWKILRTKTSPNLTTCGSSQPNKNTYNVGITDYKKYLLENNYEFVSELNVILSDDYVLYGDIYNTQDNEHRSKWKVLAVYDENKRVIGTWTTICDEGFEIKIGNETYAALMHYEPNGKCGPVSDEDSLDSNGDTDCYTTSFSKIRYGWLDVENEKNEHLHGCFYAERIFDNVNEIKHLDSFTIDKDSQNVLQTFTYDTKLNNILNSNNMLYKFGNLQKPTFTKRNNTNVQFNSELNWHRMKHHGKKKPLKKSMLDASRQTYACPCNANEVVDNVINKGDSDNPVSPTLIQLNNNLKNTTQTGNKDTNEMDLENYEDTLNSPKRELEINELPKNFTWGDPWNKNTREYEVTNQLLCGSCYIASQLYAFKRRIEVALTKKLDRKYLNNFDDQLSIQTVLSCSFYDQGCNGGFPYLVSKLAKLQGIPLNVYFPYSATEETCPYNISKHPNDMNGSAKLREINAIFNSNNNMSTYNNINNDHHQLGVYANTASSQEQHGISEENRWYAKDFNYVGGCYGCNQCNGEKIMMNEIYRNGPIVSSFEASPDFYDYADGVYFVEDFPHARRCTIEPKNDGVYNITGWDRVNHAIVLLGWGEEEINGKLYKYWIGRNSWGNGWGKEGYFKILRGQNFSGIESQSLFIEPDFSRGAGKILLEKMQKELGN
row,Structure (SMILES),% Inhibition @ 10 uM [%]
1,CCS(=O)(=O)c1nc(S(=O)(=O)c2ccc(Cl)cc2)c(N2CCC(C)CC2)s1,-2.25
2,O=C(Cc1ccccc1)NCCc1c[nH]c2ccccc12,-5.69
3,CCCOc1ccc(C(=O)C2=C(O)C(=O)N(CCCN3CCOCC3)C2c2ccc(C)cc2)c(C)c1 (stereo not drawn),1.31
4,Cc1ccc(C2c3c(-c4ccccc4O)n[nH]c3C(=O)N2Cc2ccncc2)cc1 (stereo not drawn),10.6
5,COc1cc2c(N3CCCCCC3)cc(O)c(CC(=O)Nc3ccccc3)c2cc1OC,12.1
6,CCOc1ccccc1C1C(C#N)=C(SC)N=C2CCCC(O)=C21 (stereo not drawn),-1.4
7,CCC(C)(NC(=O)CNC(=O)c1ccccc1)C(=O)NC1CCCC1 (stereo not drawn),3.61
8,Cn1c(=O)[nH]c(=O)c2[nH]c(Cc3ccccc3)nc21,7.86
9,CCOc1ccccc1N(CC(=O)NC1CC2CCC1C2)S(=O)(=O)c1ccccc1 (stereo not drawn),-7.62
10,CC1=C(C(=O)Nc2cccnc2)C(c2ccc(Cl)cc2)n2nc(-c3cccnc3)nc2N1 (stereo not drawn),-3.28
11,CC(C)Sc1cc(N2CCOCC2)nc(-c2ccccc2)n1,2.63
12,O=C1C2C3C=CC(CC3)C2C(=O)N1c1cc(C(F)(F)F)ccc1Cl (stereo not drawn),-5.31
13,Cn1nc(C(=O)NCc2ccc3c(c2)OCO3)c2c1-c1ccccc1SC2,86.5
14,COc1cccc(N2CCN(C3CCC(c4ccccc4)CC3)CC2)c1 (stereo not drawn),-3.5
15,CC1CCc2c(sc3nc(SCC(=O)O)nc(N)c23)C1 (stereo not drawn),-2.37
16,COc1ccc(S(=O)(=O)N2CCSC2c2ccccc2Cl)cc1 (stereo not drawn),68.6
17,CCOCCCNC(=O)CCc1cn(Cc2ccc(F)cc2)c2ccccc12,0.0244
18,Cc1ccc(CCNC(=O)c2csc3c2CCCCC3)cc1,3.54
19,O=C1C2CCCCN2C(=O)N1CCCCN1CCN(c2cccc(C(F)(F)F)c2)CC1 (stereo not drawn),-0.318
20,Cc1ccc(NC(C)(C)c2nnnn2C(/C=C\c2ccc(Cl)cc2Cl)C(C)(C)C)cc1 (stereo not drawn),7.14
21,COCCn1c(COc2ccc(Cl)cc2)nc2ccccc21,-1.66
22,C=CCOc1c(Cl)cc(CNC(C)(C)C)cc1OC,2.01
23,O=C(NCc1ccc2c(c1)OCO2)c1ccc2c(c1)ncn2C1CCCC1,2.05
24,COc1cc(C2CC(=O)N3C(=C2C#N)SCC3(O)c2ccc(Cl)cc2)ccc1O (stereo not drawn),-0.0235
25,CCOC(=O)CCNc1nnc(S)nc1O,-1.29

row,Structure (SMILES),% Inhibition @ 10 uM [%]
1,Cc1ccc(-c2nc3ncccc3o2)cc1NC(=O)C(C)C,2.08
2,N#CC1=C(Nc2ccc(Cl)cc2)CCC1,1.7
3,OCCN1CCN(C2Cc3ccc(Cl)cc3Sc3ccc(F)cc32)CC1 (stereo not drawn),-2.29
4,O=C(c1ccccc1)c1ccc(C(=O)O)c(C(=O)O)c1,-9.55
5,C=CCOc1ccc(CNC(C)(C)C)cc1OC,1.84
6,CCC(C)NC(=O)CSc1nc2nc(C)c(Cc3cccc(C)c3)c(C)n2n1 (stereo not drawn),-3.89
7,COc1ccc(C(=O)Nc2nc(C)c(C(=O)N(C)C)s2)cc1OC,0.431
8,COc1cc2c(C)nc(O)c(CC(=O)Nc3ccccc3)c2cc1OC,18
9,O=C1NCCCC[C@@H]1Nc1ccc(C(F)(F)F)cn1,-4.8
10,Nc1nc(Cn2nnc(-c3ccccc3F)n2)nc(N2CCOCC2)n1,-1.46
11,N#CCNC(=O)[C@@H](Cc1ccncc1)NC(=O)OCc1ccccc1,-1.5
12,COc1cccc(/C=C(\C#N)c2nc3ccccc3[nH]2)c1OC,1.08
13,COc1ccccc1OCCSc1nc(-c2ccccc2F)nc2cc(=O)[nH]n12,-0.12
14,COCCn1c(=N)c(C(=O)NCc2cccnc2)cc2c(=O)n3cc(C)ccc3nc21,3.6
15,COc1ccc(/C=C(\NC(=O)c2ccco2)C(N)=O)cc1,-1.36
16,COc1ccc(C(=O)N(Cc2ccccc2F)C2CCS(=O)(=O)C2)cc1Cl (stereo not drawn),6.67
17,C/C(=C1/C(=O)N(c2nc3ccccc3s2)N=C1CSc1ccc(Cl)cc1)N1CCOCC1,1.26
18,Cc1cc(C)n2nc3nc(N4CCOCC4)nc(-c4ccc(C(C)C)cc4)c3c2n1,2.64
19,CS(=O)(=O)N(CC(=O)NCCSc1ccccc1)c1cccc(Cl)c1,-8.78
20,COCCNC(=S)NCCc1c(C)[nH]c2ccc(OC)cc12,4.41
21,CCc1c(C)sc(NC(=O)Cc2ccc(OC)c(OC)c2)c1C(N)=O,16.2
22,COC(=O)C1=C(C)N(CCc2ccccc2)C(=O)C1(NC(=O)c1ccccc1)C(F)(F)F (stereo not drawn),-1.52
23,Cc1c(C(=O)NCCN(C)Cc2ccccc2)sc2nc3n(c(=O)c12)CCCCC3,-8.31
24,CCOc1ccc(NC(=O)COc2cc(C)ccc2C(C)C)cc1,-3.34
25,CCOc1ccc(C(=O)Nc2ccc(C)cn2)cc1,-0.95

row,Structure (SMILES),% Inhibition @ 10 uM [%]
1,CCOc1ccccc1C1CC(=O)NC(SCc2ccccc2)=C1C#N (stereo not drawn),-1.64
2,COC(=O)c1c(N)sc2c1CCC2,4.57
3,N=C1S/C(=C\c2c[nH]nc2-c2ccc(F)cc2)C(=O)N1c1nonc1N,5.12
4,Cc1nc2c(=O)[nH]c(=O)n(C)c2nc1C,3.54
5,CCOC(=O)c1cc(-c2ccccc2)n(-c2ccccc2OC)n1,-3.14
6,COc1cccc(S(=O)(=O)Nc2noc3ccccc23)c1,-6.5
7,O=C(Nc1ccc2ccccc2c1)c1ccncc1,-5.35
8,CC(=O)N1CCC2(CC1)OC(=O)C(C)=C2C(=O)NCc1cccc(F)c1,-1.04
9,Cc1cccc2cc(-c3nc4ccccc4[nH]3)c(=O)oc12,2.31
10,CCOC(=O)N1CCN(S(C)(=O)=O)CC1,2.92
11,Cc1c(C)n(Cc2ccc(F)cc2)c2ccc(C(=O)NCCN(C)C)cc12,-8.85
12,O=C(NCc1ccc(F)cc1)C1c2ccccc2C(=O)N(C2CCCC2)C1c1cccs1 (stereo not drawn),0.554
13,Cc1ccc(C(=O)Cn2c3ccccc3n3nc(-c4ccccc4)nc23)cc1,-7.38
14,N#Cc1c(N)n(-c2ccccc2N)c2nc3ccccc3nc12,0.708
15,O=C(NOC(=O)c1ccc(Br)cc1)c1ccc(Cl)cc1,-9.79
16,Cc1ccc(-c2nc(CS(=O)(=O)CC(=O)NCCN(CC(C)C)CC(C)C)c(C)o2)cc1,-0.138
17,CN(C)CCCN1CC(C(=O)O)CC1=O (stereo not drawn),-1.72
18,CCOC(=O)c1sc(NC(=O)c2cc(=O)c3cc(C)cc(C)c3o2)c(C(=O)OCC)c1C,5.06
19,CC1(C)O[C@H]2[C@@H](O1)[C@@H](C(=O)NCC(=O)O)O[C@@H]1OC(C)(C)O[C@@H]12,1.64
20,CCCOc1cccc(C(=O)N(Cc2ccc(Cl)cc2)C2CCS(=O)(=O)C2)c1 (stereo not drawn),-6.78
21,CCN(CC)c1ccc(C2NC(=O)NC(C)=C2C(=O)Nc2ccccc2)cc1 (stereo not drawn),-0.949
22,c1cc(C23CC4CC(CC(C4)C2)C3)ccc1OCCN1CCCCC1,3.58
23,Cc1[nH]c2ccc3ncccc3c2c1C,0.658
24,CC1CCN(S(=O)(=O)c2ccc3c(ccn3CC(=O)NC3CCCc4ccccc43)c2)CC1 (stereo not drawn),9.05
25,COc1ccc2c(c1)C1CC(C)(NC(=O)C1S(=O)(=O)c1ccc(C)c(C)c1)O2 (stereo not drawn),-0.72

row,Structure (SMILES),% Inhibition @ 10 uM [%]
1,CC(C)(C)OC(=O)NC1CCN(S(=O)(=O)c2ccc(OC(F)(F)F)cc2)CC1,-3.24
2,O=C(Cn1cnc2onc(-c3ccc(F)cc3)c2c1=O)N1CCN(Cc2ccc3c(c2)OCO3)CC1,5.2
3,O=C1c2ccncc2C(=O)N1CCc1ccccc1,5.39
4,CCC1CCCCN1C(=O)CSc1c2c(nc3ccccc13)CCC2 (stereo not drawn),-6.89
5,CC(=O)Nc1cc(-c2ccccc2)sc1C(=O)O,-1.42
6,O=C(NC1CCCc2ccccc21)C1CCCN(S(=O)(=O)c2ccc3nc(O)ccc3c2)C1 (stereo not drawn),1.66
7,O=C(CCCOc1ccc(Cl)cc1Cl)NCC1CCCO1 (stereo not drawn),0.687
8,O=C(Nc1ccc2ccccc2c1)c1cc(F)c(Cl)nc1Cl,3.72
9,Oc1ccccc1-c1nc(/C=C/c2cccs2)no1,0.032
10,Cc1c(Cl)cccc1N(CC(=O)N1CCc2ccccc2C1)S(C)(=O)=O,1.29
11,COc1ccc(-c2noc(-c3ccc(Cl)c(Cl)c3)n2)cc1OC,-1.25
12,COc1ccccc1C(=O)Nc1cc(-c2ccccc2)no1,-3.24
13,CCOc1cc(C2C3=C(O)CC(C)(C)CC3=Nc3ncnn32)ccc1O (stereo not drawn),-2.92
14,COc1ccc2c(c1)cc1c(=O)n(CC(=O)NCCc3ccc(OC)c(OC)c3)nc(C)n12,0.0198
15,CCCCOc1ccc(/C=C2\N=C(c3ccc(OC)cc3)OC2=O)cc1,2.11
16,CC(=O)N1N=C(c2ccc(F)cc2)OC12CCCCC2,-1.61
17,COc1ccc(C(=O)ON=C2c3ccccc3-c3ccccc32)cc1OC,-5.62
18,O=C(O)c1ccc(CNC(=O)C2CCN(S(=O)(=O)c3cccc4nsnc34)CC2)cc1,0.208
19,COc1ccc(CN2CCN(c3ccccc3F)CC2)cc1Br,-3.56
20,Nc1cc(N)nc(SCc2ccc(C(=O)Nc3ccccc3F)cc2)n1,3.58
21,COc1ccccc1C(=O)Nc1ccc2c(C)cc(=O)oc2c1,-5.11
22,Cc1c(C)c2cc3c(C(C)(C)C)coc3c(C)c2oc1=O,-6.64
23,CC(NC(=O)Cn1nc(-c2ccc(Cl)cc2)c2ccccc2c1=O)c1ccccc1 (stereo not drawn),-2.14
24,CN(C)c1nc(OCC(F)(F)F)nc(N(c2ccccc2)c2ccccc2)n1,-4.35
